The labels stand for the following.
B1: LINE1-full (parent)
chain: UACGUAGGUGGUUUUCCCCUGAUAGUGCUAAGGGGGCCUGGAAGUUUGGACUGGGCAGAGCUCAACACAGCGUGGCAAAGUGGCUGUGGCUAGACUGCCUCUCUGGAUUCCUCGUCACUCAGCAGGGCAUCUCUGAGAGAAAUGCC

Read counts are not given, so values of variants with three or more changes are uncertain.

In this data set the parent is B1. Nature of the data set: self-cleavage, relative activity (ratio to wild type); higher = more cleavage; in vitro, sequencing; the parent is a self-cleaving ribozyme.
In the case of UACGUAGGUGGUUUUCCCCAGAUAGUGCUAAGGGGGCCUGGAAGUUUGGACUGGGCGGAGCUCAACACAGCGUGGCAAAGUGGCUGUGGCUAGACUGCCUCCCUGGAUUCCUCGUCACUCAGCAGGGCAUCUCUGAGAGAAAUGCC [U20A A57G U102C], the self-cleavage turned out to be 0.47.

As to UACGUAGGUGGUCUUCCCCUGAUAGUGCUAAGGGGGCCUGGAAGUUUGGACUGGGCAGAGCUCAACACAGCGUGGCAAAGUGGUUGUGGCUAGACUGCCUCUCUGGAUUCCUCGUCUCUCAGCAGGGCACCUCUGAGAGAAAUGCC [U13C C84U A117U U130C], the self-cleavage came out at 0.06.

Consider UGCGAAGGUGGUUUUCCCCUGAUAGUGCUAAGGGGGCCUGGAAGUUUGGACUGGGCAGAGCUCAACACAGCGAGGCAAAGAGGCUGUGGCUAGACUGCCUCUCUGGAUUCCUCGUCACUCAGCAGGGCAUCUCUGAGAGAAAUGCC [A2G U5A U73A U81A], for which the self-cleavage turned out to be 0.83.

Consider UACGUAGGUGGUUCUCCCCUGAUAGUGCUAAGGGGGCCUGGUAGUUUGGACUGGGCAGAGCUCAACACAGCGUGGCAAUGUGGCUGUGGCUAGACUGCCUCUCUGGAUUCCUCGUCACUCAGCAGGGCAUCUCUGAGGGAAAUGCC [U14C A42U A79U A138G], for which the self-cleavage stood at 0.89.

UACGUAGGUGGUUUUCCCCUGAUAGUGCUAAGGGGGCCAGGAAGCUUGGUCUGGGCAGAGCUCAACACAGCGUGGCAAAGUGGCUGUGGCUAGACUGCCUCUCUGGAUUCCUCGUCACUCAGCAGGGCAUCUCUGAGAGAAAUGCC [U39A U45C A50U]: the self-cleavage amounted to 1.12.

Turning to UACGUAGGAGGUUUUCCCCUGAUAGUGCUAAGGGGGCCUGGAAGUUUGGACUGGGCUGAGCCCAACACAGCGUGGCAAAGUGGCUGUGGCUAGACUGCCUCUCUGGAUUCCUCGUCACUCAGAAGGGCAUCUCUGAGAGAAAUGCC [U9A A57U U62C C123A], the self-cleavage came out at 0.09.

With UACGUAGGUGGUCUUCCCCUGAUAGUGCUAAGGGGGCCUGGAAGAUUGGACUGGGCAGAGCUCAACACAGCGCGGCAAAGUGGCUGUGGCUAGACCGCCUCUCUGGAUUCCUCGUCACUCAGCAGGGCAUCUCCGAGAGGAAUGCC [U13C U45A U73C U96C U134C A140G], the self-cleavage stood at 0.

For UACGUAGGUGGUUUUCCCCUGAUAGUGCUAAGGGGGCCUGGAAGUUUGGACUGGGCAGAGCUCACCACAGCGUGGCAAAGUGGUUGUGGCUAGACUGCCUCCCUGGGUUCCUCGUCACUAAGCAGGGCAUCUCUGUGAGAAAUGCC [A65C C84U U102C A107G C120A A136U], the self-cleavage turned out to be 0.02.

With UACGUAGGUGGUUUUCCCCUGAUUGUGCUAAGGGGGCCUGGAAGUUUGGACUGGGCAGAGCUCAACACAGCGUGGCAAAGUGGCUGUGGCUAGACUGCCUCUCUGGAUUCCUCGUCACUCAACAGGGCAUCUCUGUGAGAAAUGCC [A24U G122A A136U], the self-cleavage was 1.44.

With UACGUAGGUGGUUCUCCCCUGAUAGUGCUAAGGGGGCCUGGGAGUUUGGACUGGGCAGAGCUCAACACAGCGUGGCAAAGUGGCUGUGGCUAGACUGCCUCUCUGGAUUCCUCGUCACUCUGCAGGGCACCUCUGAGAGAAAUGCC [U14C A42G A121U U130C], the self-cleavage is 2.19.

On to UACGUAGGUGGUCUUCCCCUGAUAGUGCCAAGGGGGCCUGGAAGUUUGGACUGGGCAGAGCUCAACACAGCGUGGCAGAGUGGCUGUGGCUAGACUGCCUCUCUGGAUUCCUCGUCACUCAGCAGAGCAUCUCUGAGAGAAGUGCC [U13C U29C A78G G126A A142G], for which the self-cleavage was determined as 0.57.

Turning to UACGUAGGUGGUUUUCCCCUGAUAGUGCUGAGGGGGCCUGGAAGUUUGGACUGGGCAGAGCUCAACACAGCGUGGCAAAGUGGCUGUGGCUAGACUGCCCCUCUGGAUUCCUCGUCACUCAGGAGGGCAUCUCUGAGAGAAAUGCC [A30G U100C C123G], the self-cleavage stood at 0.81.

As to UACGUAGGUGGUUUUCCCCUGAUAGUGCUAAGGGGGCCUGGAAGUUUGGACUGGGCAGAGCUCAACACAGCGUGGCAAAGUGGCUGAGGCUAGACUGCCUCUCUGGAUUCCUCGACACUCAGCAGGGCAUCUCUGAGAGGAAUGCC [U87A U115A A140G], the self-cleavage was 0.08.

As to UACGUAGGUGGUUUUCCCCUGAUAGUGCUAAGGGGGCCUGGAAGUUUGGACUGGGCUGAGCUCAACACAGCGUGGCAAAGUGACUGUGGCUAUACUGCAUCUCUGGAUUCCUCGUCACUCAGCAGGGCAUCUCUGAGAGAAAUGCC [A57U G83A G93U C99A], the self-cleavage was found to be 0.02.

Take UACGUAGGUGGUUUUCCCCUGGUAGUGCUAAGGGGGCCUGGAAGUUUGGACUGGGCUGAGCUCAACACAGCGUGGCAAAGUGGCUGUGGCUAGACUGCCUCUCCGGAUUCCUCGUCACUCAGCAGGGCAUCCCUGAGAGAAAUGCC [A22G A57U U104C U132C]: the self-cleavage is 0.14.

UGCGUAGGUGGUUUUCCCCUGAUAGUGCUAAGGGGGCCUGGAAGCUUGGACUGGGCAGAGCUCAACACAGCGUGGCAAAGUGGCUGUGGCUAGACUGCCUCCCUGGAUUCCUCGUCACUCAGCAGGGCAUCUCUGAGAGAAAUGCC [A2G U45C U102C]: the self-cleavage came to 0.

On to UACGUAGGUGGUUAUCCCCUGAUAGUGCUAAGGGGGCCUGGAAGUUCGAACUGGGCAGAGCUCAACACAGCGUGGCAAAGUGGCUGUGGCUAGACUGCCUCUCUGGAUUCCUCGUCACUCAGCAGGGCAUCUCUGAGAGAAAUGCC [U14A U47C G49A], for which the self-cleavage stood at 0.3.

As to UACGUAGGUGGUUUUCCCCUGGUAGUGCUAAGGGGGCCUGGAAGUUUGGACUGGGCAGAGCUCAACACAGCGUGGCAAAGUGGCUGUGGCUAGACUGCCCCUCUGGAUUCCUCGUCACUCAGCAGGGCAUCUCUGAGGGAAAUGCC [A22G U100C A138G], the self-cleavage came to 1.43.

Regarding UACGUAGGUGGUUUUCCCCUGAUAGUGCUAAGGGGGCCUGGAAGUUUGGACUGGGCUGAGCUCAACACAGCGUGGCAAAGUGGCUGUGGCUGGACUGCCUCUCUGGGUUCCUCGACACUCAGCAGGGCGUCUCUGAGAGAAAUGCC [A57U A92G A107G U115A A129G], the self-cleavage came out at 0.

Values taken from the RNAGym collection of RNA variant scans (doi:10.7554/elife.90254).
